In a compilation of properties of binary mixtures (doi:10.1039/b819795b):
Some of these densities may be calculated back from excess volumes.

Assay: xn = mol fraction of the nth substance listed
Details: 101 kPa

CCCCCCCC[n+]1ccn(C)c1.F[P-](F)(F)(F)(F)F + CC(C)O
mass density [kg/m3]
Details	293.15 K	298.15 K	303.15 K
x1 = 0.0004	785.7	781.7	777.3
x1 = 0.0009	786.6	782.6	778.2
x1 = 0.0014	787.5	–	779.1
x1 = 0.0024	789.1	785.1	780.7
x1 = 0.003	790.1	786.1	781.8
x1 = 0.0053	–	790	785.7
x1 = 0.0098	–	–	793.2
x2 = 0	1239.6	1235.7	1231.9
x2 = 0.0069	–	1235	1231.2
x2 = 0.0965	1227.1	1223.3	1219.5
x2 = 0.2012	1210.9	1207.1	1203.2
x2 = 0.304	1192	1188.1	–
x2 = 0.4009	1170.5	1166.5	1162.6
x2 = 0.4943	1145.1	–	–
x2 = 0.5989	1109.3	1105.3	–
x2 = 0.6487	–	1084.5	1080.3
x2 = 0.6964	–	1061.7	1057.5
x2 = 0.7469	–	–	1029.7

CCCCCC + CCCCCCCC[n+]1ccn(C)c1.F[P-](F)(F)(F)(F)F
x1 = 1
Details	mass density [kg/m3]
293.15 K	659.5
298.15 K	654.9

CCCCCCCC[n+]1ccn(C)c1.F[P-](F)(F)(F)(F)F + CCCCCCC
mass density [kg/m3]
Details	x2 = 0	x2 = 0.0074	x2 = 0.0516	x2 = 0.0803
293.15 K	1239.6	1237.4	1224.2	–
298.15 K	1235.7	–	1220.4	1212.2
303.15 K	–	1229.7	–	1208.4

CCCCCCCC[n+]1ccn(C)c1.F[P-](F)(F)(F)(F)F + CCCCCC
mass density [kg/m3]
Details	x2 = 0	x2 = 0.0468	x2 = 0.0712	x2 = 0.0893	x2 = 0.1268
293.15 K	1239.6	1227.4	1221	1216.1	–
298.15 K	1235.7	1223.6	1217.1	–	1201.5
303.15 K	1231.9	1219.7	–	1208.4	1197.6

CCCCCCC + CCCCCCCC[n+]1ccn(C)c1.F[P-](F)(F)(F)(F)F
x1 = 1
Details	mass density [kg/m3]
293.15 K	683.7
298.15 K	679.5
303.15 K	675.2

CC(C)O + CCCCCCCC[n+]1ccn(C)c1.F[P-](F)(F)(F)(F)F
Details	mass density [kg/m3]
293.15 K, x1 = 1	785
